PubChem BioAssay AID1463 (National Center for Advancing Translational Sciences (NCATS), 2008)
“And” between values parts separate entries of the source, which are not always exact repeats. Equal entries are not always repeated. About 2,600 (0.93%) of roughly 280,000 compounds were called active. Another 8% or so got no clear call; they are omitted. The call rests on the fitted dose curve; in most records, active means well fitted curve in the direction sought with a large enough effect; inconclusive means small, poorly fitted or top-dose-only effect; inactive means flat fitted curve, though single readings scatter. The entries are a selection whose mix differs from that of the whole data set.
On the % scale 0 is the no-effect control and ±100 the full control effect; potency means the concentration at half of the fitted maximal effect; tags describe the fitted curve by direction and shape or compound fluorescence and quenching.

Experiment: Counterscreen qHTS for Inhibitors of Tau Fibril Formation, Fluorescence Polarization; further: nearly all actives have a fitted effect of over 55% in size
Details: tau K18 P301L Alexa594 fluorescence, heparin fibrillization; series mostly up to 57.7 µM; activity change, negative = decrease: at the top concentration
Method in brief: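 Human tau K18 P301L (15 uM unlabeled, 0.24 uM Alexa 594-labeled) in 100 mM sodium acetate pH 7 with 20 uM heparin, 6 hr at 37 C. ThT 30 uM added, 1 hr ambient; Alexa 594 FP and total fluorescence read at 555/632 nm.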
In the case of Cc1ccc(CNC(=O)CSc2nc3n[nH]c(C)c3c(=N)n2-c2cccc(C)c2)cc1, the “activity change, negative = decrease” value is reported as inactive: -28%.
For CC(=O)c1ccc(OCc2ccccc2)c(C)c1O, the activity change, negative = decrease was inactive: -13.8% [at 11.6 µM].
For CNCC(O)c1ccc(O)c(O)c1 (stereo not drawn), the Potency was “inactive”.
With C[C@@H](C(=O)Nc1ccc2ccccc2c1)[C@H]1C[C@]1(C)[C@H](NS(=O)(=O)c1ccccc1)c1ccccc1 the Potency was “inactive”.
For CCn1c(C)cc(/C=C2/NC(=O)N(CC(=O)Nc3cccc(C)c3)C2=O)c1C, the “activity change, negative = decrease” value was inactive: -26.8%.
For CN([C@@H](Cc1ccc(OS(=O)(=O)c2cccc3cnccc23)cc1)C(=O)N1CCN(c2ccccc2)CC1)S(=O)(=O)c1cccc2cnccc12, the “activity change, negative = decrease” value was inactive: -20.5%.
For COc1cc(N/N=C(\C)c2ccc(O)c(C)c2)nc(-c2ccccc2)n1, the Potency was active: 8.91 µM [quencher].
For C[C@H](Cc1ccc(O)c(O)c1)[C@@H](C)Cc1ccc(O)c(O)c1, the “activity change, negative = decrease” value was inactive: -3.02%.
In the case of Cc1ccc2c(c1)c1ccc3c(c1n2C)C(=O)C=CC3=O, the Potency is reported as active: 0.891 µM [quencher].
In the case of O=[N+]([O-])c1ccc(Sc2ncccn2)c([N+](=O)[O-])c1, the Potency is reported as active: 6.31 µM [quencher].
In the case of CCCc1nn2c(N)c(/C=C3\C=Nc4ccccc43)c(=O)nc2s1, the “activity change, negative = decrease” value is reported as inactive: -30%.
In the case of CCOC(=O)C1=C(C)N=C2c3ccccc3C(=O)C2C1c1ccc(Br)cc1 (stereo not drawn), the Potency is reported as active: 11.2 µM [quencher].
In the case of COc1ccc(Nc2c(-c3ccco3)nc3cccc(C)n23)cc1, the “activity change, negative = decrease” value is reported as inactive: -25.1%.
In the case of COc1ccc2c(c1)C(=O)[C@@H](OC(=O)NCc1ccc3c(c1)OCO3)[C@H](c1ccc(OC)c(Br)c1)O2, the “activity change, negative = decrease” value is reported as inactive: -21.3%.
For CN(Cc1cnc2nc(N)nc(N)c2n1)c1ccc(C(=O)NC(CCC(=O)O)C(=O)O)cc1 (stereo not drawn), the “activity change, negative = decrease” value was inactive: -8.6%.
In the case of Cc1cccc(N(C)C(=S)Oc2ccc3ccccc3c2)c1, the “activity change, negative = decrease” value is reported as inactive: -28.6%.
For COC(=O)CCCC1=CC2=CC(=O)C(C)(OC(=O)c3cccs3)C(=O)C2=CN1c1cccc(C#N)c1 (stereo not drawn), the activity change, negative = decrease was inactive: -10.6% [at 11.6 µM].
For C[C@]1(C(=O)NCCc2c[nH]c3ccccc23)C=C[C@@H](Cc2ccccc2)N1C(=O)c1ccccc1, the “activity change, negative = decrease” value was inactive: -4.88%.
With COc1cc(NC(=O)CCCSc2nc(-c3ccco3)cc(C(F)(F)F)n2)cc(OC)c1OC the “activity change, negative = decrease” value was inactive: 10.6%.
For Cc1nc2sccn2c(=O)c1CCN1CCC(=C(c2ccc(F)cc2)c2ccc(F)cc2)CC1, the Potency was “inactive”.
With CCC(C)C(=O)Nc1nc(C)c(-c2csc(Nc3cc(Cl)ccc3OC)n2)s1 (stereo not drawn) the Potency was active: 12.6 µM [quencher].
For CCc1cccc(NC(=O)CN(C)S(=O)(=O)c2cccc3cccnc23)c1, the “activity change, negative = decrease” value was inactive: -16.3%.
In the case of Clc1ccc(C(c2ccccc2Cl)C(Cl)Cl)cc1 (stereo not drawn), the “activity change, negative = decrease” value is reported as inactive: -14.8%.
In the case of Cc1ccc(S(=O)(=O)OCC2CN3C(CCC(C)C3c3ccc(Br)cc3)C(=O)O2)cc1 (stereo not drawn), the activity change, negative = decrease is reported as inactive: -4.02% [at 11.6 µM] and inactive: -13.1% [at 11.6 µM] and inactive: -19.3% [at 11.6 µM].
In the case of COc1cc(/C=C2\SC(=O)N(c3ccccc3Cl)C2=O)cc([N+](=O)[O-])c1O, the Potency is reported as active: 15.8 µM [quencher].
For N[C@H](Cc1ccc(O)c(O)c1)C(=O)O, the “activity change, negative = decrease” value was inactive: -8.39%.
With O=C(O)c1ccc(N/N=C/c2ccc(-c3cccc(Cl)c3)o2)cc1 the Potency was active: 20 µM [quencher].
In the case of CN1/C(=C\C(=O)c2cccs2)Sc2ccccc21, the “activity change, negative = decrease” value is reported as inactive: -20.5%.
